# Measured values taken from PubChem BioAssay AID493035 (The Scripps Research Institute Molecular Screening Center, 2011).
# Values joined by “and” are separate entries in the source; they are usually repeats but may differ in a detail not shown here. Equal entries are not always repeated. In all, about 2,000 compounds went through this assay and about 45 (2%) were called active.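 The calls were made as follows: active = inhibition above the mean of all tested compounds plus 3 SD (cut at about 49% in these data); inactive = the rest.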 This is one part of the list.
# Target: Perilipin-5 (Homo sapiens) + 1-acylglycerol-3-phosphate O-acyltransferase ABHD5 (Homo sapiens) (UniProt Q00G26+Q8WTS1)
# UniProt Q00G26, sequence (Q00G26 whole entry, looked up): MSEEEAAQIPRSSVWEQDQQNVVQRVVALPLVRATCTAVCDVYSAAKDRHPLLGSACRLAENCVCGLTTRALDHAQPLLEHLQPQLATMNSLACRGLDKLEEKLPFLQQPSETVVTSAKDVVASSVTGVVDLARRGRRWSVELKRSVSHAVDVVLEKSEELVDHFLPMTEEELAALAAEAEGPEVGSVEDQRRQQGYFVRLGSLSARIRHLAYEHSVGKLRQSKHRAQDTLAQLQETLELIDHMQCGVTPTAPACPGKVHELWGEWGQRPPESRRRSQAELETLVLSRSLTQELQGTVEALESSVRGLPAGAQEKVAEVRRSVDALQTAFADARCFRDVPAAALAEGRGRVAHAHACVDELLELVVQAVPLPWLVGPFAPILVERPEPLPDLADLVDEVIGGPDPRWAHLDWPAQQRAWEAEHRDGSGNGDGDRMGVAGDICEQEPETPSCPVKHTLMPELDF
# UniProt Q00G26, sequence (Q8WTS1 whole entry, looked up): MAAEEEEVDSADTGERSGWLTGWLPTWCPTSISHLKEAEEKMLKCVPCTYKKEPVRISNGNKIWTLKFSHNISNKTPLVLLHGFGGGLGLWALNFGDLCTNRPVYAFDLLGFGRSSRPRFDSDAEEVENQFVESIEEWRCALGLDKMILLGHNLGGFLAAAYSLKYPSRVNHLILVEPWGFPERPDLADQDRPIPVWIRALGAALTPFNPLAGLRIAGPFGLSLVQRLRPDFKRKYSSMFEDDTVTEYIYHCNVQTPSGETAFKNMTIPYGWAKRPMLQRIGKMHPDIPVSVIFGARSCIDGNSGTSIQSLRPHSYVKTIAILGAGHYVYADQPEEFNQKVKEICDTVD
# Assay: ABHD5-PLIN5 interaction inhibitors, pilot screen, cell lysate, split luciferase complementation, luminescence, NIH validation set (AID 493035);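 also: 0% = DMSO only wells while the 100% control is not stated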
# Conditions: split G. princeps luciferase complementation, lysates, 4 h; at 7.9 µM, stronger effect = higher value
row,Compound,inhibition
1,COc1ccc(-c2[nH]ncc2CN(CCO)Cc2cccs2)c(F)c1,inactive: -7.6%
2,CCOC(=O)C1CCCN(Cc2nc(Cc3cccc(F)c3)no2)C1 (configuration not stated),inactive: -2.87%
3,CCOc1ccc(C(=O)NCC2(c3ccccc3)CCOCC2)cc1,inactive: 0.52%
4,CCOc1ccc2nc(S(N)(=O)=O)sc2c1,inactive: -10.3%
5,Nc1ccc(N)c(C(=O)O)c1,inactive: -0.31%
6,CN1CCCN(C(c2ccccc2)c2ccc(Cl)cc2)CC1 (configuration not stated),inactive: -1.84%
7,O=C(O)c1ccccc1O,inactive: -3.25%
8,CCNCCC(CCC(C)C)c1ccc2c(c1)OCO2 (configuration not stated),inactive: 2.05%
9,C/C(NC(=O)c1cccs1)=C1\C(=O)C[C@@H]2[C@H]1C2(C)C,inactive: 4.33%
10,O=P(c1ccccc1)(c1ccccc1)c1nc(-c2ccc(Cl)cc2)oc1N1CCOCC1,inactive: -3.77%
11,Cc1cc(/C=N/O)c(C)n1-c1ccc(Br)cc1,inactive: 9.12%
12,Cc1cc(O)c2/c(=N\N)c(-c3csc(C)n3)coc2c1,inactive: 9.92%
13,CC1(C)S[C@@H]2[C@H](NC(=O)[C@H](N)c3ccccc3)C(=O)N2[C@H]1C(=O)O,inactive: -3.69% and inactive: -5.4%
14,CC(=O)NCCCC(=O)NC(CCC(=O)OCc1ccccc1)C(=O)OCc1ccccc1 (configuration not stated),inactive: -3.63%
15,O=c1n(CCCN2CCN(c3cccc(Cl)c3)CC2)nc2ccccn12,inactive: -2.45%
16,CC12CCC(C(=O)NNc3ccccc3)(C(=O)C1=O)C2(C)C (configuration not stated),inactive: 10.3%
17,OC12CCCCC1C(c1ccc3c(c1)OCO3)N(Cc1cccc(F)c1)CC2 (configuration not stated),inactive: -7.02%
18,CC(=O)O[C@H]1CC[C@H]2[C@@H]3CCc4cc(O)ccc4[C@H]3CC[C@]12C,inactive: 9.68%
19,CCCCCCCC(=O)OCC(O)CO (configuration not stated),inactive: -0.46%
20,O=C(Nc1ccc(Oc2c(F)c(F)c(F)c(F)c2F)cc1)OC1CCN2Cc3ccccc3N=C12 (configuration not stated),active: 69.3%
21,COc1ccc(-c2cc3cc(OC)c(OC)cc3c(C)n2)cc1,inactive: -6.39%

row,Compound,inhibition
1,Cc1ncc([N+](=O)[O-])n1CC(C)O (configuration not stated),inactive: -2.38%
2,C/C=C(/C(=C/C)c1ccc(O)cc1)c1ccc(O)cc1,inactive: 8.35%
3,O=[N+]([O-])c1cc(/C=N/n2cnnc2)ccc1N1CCCC1,inactive: 4.2%
4,COc1ccc2cc([C@H](C)C(=O)O)ccc2c1,inactive: -4.01%
5,CCN(CC)c1ccc(C2=NNC(=O)CC2C)cc1[N+](=O)[O-] (configuration not stated),inactive: -10.9%
6,C[C@@H]1C[C@H](Nc2ccccc2)c2ccccc2N1C(=O)c1cccnc1,inactive: -13.3%
7,Oc1[nH]c2ccccc2c1C1=NCCCC1,inactive: -9.5%
8,C=C(C)[C@@H]1CC=C(CN2CCC(N3CCC(C(=O)N4CCCC4)CC3)CC2)CC1,inactive: -9.03%
9,COc1cc2c(cc1NCc1ccc3c(c1)OCO3)oc1ccccc12,inactive: -2.26%
10,COc1ccc(-c2noc(CCc3ccccc3)n2)cc1,inactive: -10.1%
11,CC(C)C[C@H](NC(=O)[C@@H]1Cc2ccccc2CN1C(=O)OC(C)(C)C)C(=O)NCC1CCC(C(=O)O)CC1 (some centres not stated),inactive: -1.68%
12,COC(=O)c1ccc(=O)n(Cc2ccco2)c1,inactive: 18.6%
13,O=C(Nc1cccc(Oc2c(F)c(F)c(F)c(F)c2F)c1)N1C[C@@H]2C[C@@H](C1)c1cccc(=O)n1C2,inactive: 13.7%
14,COc1cccc(OC2OC3COC(C)(C)OC3C(O)C2NC(C)=O)c1 (configuration not stated),inactive: -7.45%
15,Cn1c(=O)[nH]c(=O)c2c1nc(Br)n2CCCO,inactive: -2.4%
16,N/C(=N\OC(=O)c1ccc(Br)o1)c1ccccn1,inactive: -0.68%
17,CN1[C@@H]2CC(OC(=O)[C@H](CO)c3ccccc3)C[C@H]1[C@@H]1O[C@@H]12 (some centres not stated),inactive: -0.98% and inactive: 0.39%
18,O=C(NCc1ccc(N2CCCC2=O)cc1)c1ccc(F)cc1,inactive: 7.2%
19,COc1cc(C(=O)Nc2cccc(-c3nnc(-c4ccco4)o3)c2)ccc1OC(C)=O,inactive: -3.44%
20,CCNC(=S)Nc1ccc(OC(F)(F)F)cc1,inactive: -0.14%
21,O=c1cc(-c2ccc3c(c2)OCCO3)oc2ccc(Cl)cc12,inactive: -8.12%

row,Compound,inhibition
1,NC(=O)c1cnccn1,inactive: -0.64%
2,Cc1nc2ccccn2c(=O)c1CCN1CCC(C(=O)c2ccc(F)cc2)CC1,inactive: -3.87%
3,CCCn1c(=O)c2[nH]c(C3CCCC3)nc2n(CCC)c1=O,inactive: -1.98%
4,CCOC(=O)n1c(=O)oc2ccccc21,inactive: -7.55%
5,O=C(CCNNC(=O)c1ccncc1)NCc1ccccc1,inactive: 0.99%
6,Oc1ccc(Oc2ncc(Cl)cc2Cl)cc1,inactive: -4.25%
7,CCOC(=O)N1CCc2[nH]c3ccc(C)cc3c2C1,inactive: 14.9%
8,Cc1nc(N[C@@H](Cc2c[nH]c3ccccc23)C(=O)O)c2oc3ccccc3c2n1,inactive: 4.96%
9,O=C(Oc1ccccc1)Oc1ccc2c(c1)oc(=O)c1ccccc12,inactive: -3.33%
10,CCCCCC(=O)O[C@]1(C(C)=O)CC[C@H]2[C@@H]3CCC4=CC(=O)CC[C@]4(C)[C@H]3CC[C@@]21C,inactive: 3.12%
11,CNCCCC12CCC(c3ccccc31)c1ccccc12,inactive: -7.66% and inactive: -3.95%
12,O=C(NCCN1CCOCC1)c1ccc(Cl)cc1,inactive: -1.5%
13,Cc1cc(OC(=O)CNC(=O)OC(C)(C)C)c2c(C)cc(=O)oc2c1,inactive: 10.9%
14,CC(=O)N(CCC1(c2ccc(C)cc2)CCOC(C(C)C)C1)Cc1ccco1 (configuration not stated),inactive: 2.14%
15,O=C(O)CCn1cnc2ccccc2c1=O,inactive: 3.76%
16,O=C(CCCN1C(=O)/C(=C\c2cccs2)SC1=S)Nc1ccccn1,inactive: -1.47%
17,O=C1CCCN1CCCn1cnc2c([nH]c3ccc(F)cc32)c1=O,inactive: 1.78%
18,CC(=O)CCCCn1c(=O)c2c(ncn2C)n(C)c1=O,inactive: 8.53%
19,Cc1cccc2c(=O)n3c(nc12)CCCCC3,inactive: -2.11%
20,CC1(C#CC[N+]2(C)CCCCC2)CCC2C(O1)c1ccccc1OC2(C)C (configuration not stated),inactive: 3.83%
